# Experimental data published in publication PMC9911399, “Two distinct binding modes provide the RNA-binding protein RbFox with extraordinary sequence specificity”.
# Substitutions are numbered along the chain they refer to; changes in the protein carry UniProt numbers. Some of the results follow.
# T1: RBFOX1 RRM RbFoxmut (Fox-RRM*) (Homo sapiens, UniProt Q9NWB1 109-208, R118D;E147R;N151S;E152T)
# T1 sequence: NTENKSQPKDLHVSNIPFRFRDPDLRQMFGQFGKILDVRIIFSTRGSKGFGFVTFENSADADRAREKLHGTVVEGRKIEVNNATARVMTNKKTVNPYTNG
# B1: UAGCCGC (DNA:RNA)
# RNA: GGGAGACCGGAAUUCAGAUUGUCCUAGCCGCUUAAAUCCCGUCGUAGCCACCA
# DNA 1: CAATCTGAATTCCGGTCTCCC
# DNA 2: TGGTGGCTACGACGGGATT
# B2: AAAUCAC (DNA:RNA)
# RNA: B1 RNA with U25A, G27A, C28U, G30A
# DNA 1: CAATCTGAATTCCGGTCTCCC
# DNA 2: TGGTGGCTACGACGGGATT
# B3: GCCUAUC (DNA:RNA)
# RNA: B1 RNA with U25G, A26C, G27C, C28U, C29A, G30U
# DNA 1: CAATCTGAATTCCGGTCTCCC
# DNA 2: TGGTGGCTACGACGGGATT
# B4: GAGUCCC (DNA:RNA)
# RNA: B1 RNA with U25G, C28U, G30C
# DNA 1: CAATCTGAATTCCGGTCTCCC
# DNA 2: TGGTGGCTACGACGGGATT
# B5: GGAAUGU (DNA:RNA)
# RNA: B1 RNA with U25G, A26G, G27A, C28A, C29U, C31U
# DNA 1: CAATCTGAATTCCGGTCTCCC
# DNA 2: TGGTGGCTACGACGGGATT
# B6: UUACGCU (DNA:RNA)
# RNA: B1 RNA with A26U, G27A, C29G, G30C, C31U
# DNA 1: CAATCTGAATTCCGGTCTCCC
# DNA 2: TGGTGGCTACGACGGGATT
# B7: GUAUCUU (DNA:RNA)
# RNA: B1 RNA with U25G, A26U, G27A, C28U, G30U, C31U
# DNA 1: CAATCTGAATTCCGGTCTCCC
# DNA 2: TGGTGGCTACGACGGGATT
# B8: GGAGGUU (DNA:RNA)
# RNA: GGGAGACCGGAAUUCAGAUUGUCCGGAGGUUUUAAAUCCCGUCGUAGCCACCA
# DNA 1: CAATCTGAATTCCGGTCTCCC
# DNA 2: TGGTGGCTACGACGGGATT
# B9: ACGCGGA (DNA:RNA)
# RNA: B1 RNA with U25A, A26C, C29G, C31A
# DNA 1: CAATCTGAATTCCGGTCTCCC
# DNA 2: TGGTGGCTACGACGGGATT
# B10: CCCUAGG (DNA:RNA)
# RNA: B1 RNA with U25C, A26C, G27C, C28U, C29A, C31G
# DNA 1: CAATCTGAATTCCGGTCTCCC
# DNA 2: TGGTGGCTACGACGGGATT
# B11: AGCUGAA (DNA:RNA)
# RNA: B8 RNA with G25A, A27C, G28U, U30A, U31A
# DNA 1: CAATCTGAATTCCGGTCTCCC
# DNA 2: TGGTGGCTACGACGGGATT
# B12: AUCCGGC (DNA:RNA)
# RNA: B1 RNA with U25A, A26U, G27C, C29G
# DNA 1: CAATCTGAATTCCGGTCTCCC
# DNA 2: TGGTGGCTACGACGGGATT
# B13: GAUAACU (DNA:RNA)
# RNA: B8 RNA with G26A, A27U, G28A, G29A, U30C
# DNA 1: CAATCTGAATTCCGGTCTCCC
# DNA 2: TGGTGGCTACGACGGGATT
# B14: GUAUCAA (DNA:RNA)
# RNA: B8 RNA with G26U, G28U, G29C, U30A, U31A
# DNA 1: CAATCTGAATTCCGGTCTCCC
# DNA 2: TGGTGGCTACGACGGGATT
# B15: CUACGUG (DNA:RNA)
# RNA: B8 RNA with G25C, G26U, G28C, U31G
# DNA 1: CAATCTGAATTCCGGTCTCCC
# DNA 2: TGGTGGCTACGACGGGATT
# B16: AAGACAA (DNA:RNA)
# RNA: B1 RNA with U25A, C28A, G30A, C31A
# DNA 1: CAATCTGAATTCCGGTCTCCC
# DNA 2: TGGTGGCTACGACGGGATT
# B17: AGGCCAC (DNA:RNA)
# RNA: B1 RNA with U25A, A26G, G30A
# DNA 1: CAATCTGAATTCCGGTCTCCC
# DNA 2: TGGTGGCTACGACGGGATT
# B18: AUUCGAU (DNA:RNA)
# RNA: B8 RNA with G25A, G26U, A27U, G28C, U30A
# DNA 1: CAATCTGAATTCCGGTCTCCC
# DNA 2: TGGTGGCTACGACGGGATT
# B19: UGAUCCC (DNA:RNA)
# RNA: B1 RNA with A26G, G27A, C28U, G30C
# DNA 1: CAATCTGAATTCCGGTCTCCC
# DNA 2: TGGTGGCTACGACGGGATT
# B20: ACGAACC (DNA:RNA)
# RNA: B1 RNA with U25A, A26C, C28A, C29A, G30C
# DNA 1: CAATCTGAATTCCGGTCTCCC
# DNA 2: TGGTGGCTACGACGGGATT
# B21: CGCCUCC (DNA:RNA)
# RNA: B1 RNA with U25C, A26G, G27C, C29U, G30C
# DNA 1: CAATCTGAATTCCGGTCTCCC
# DNA 2: TGGTGGCTACGACGGGATT
# B22: GGGAAAG (DNA:RNA)
# RNA: B8 RNA with A27G, G28A, G29A, U30A, U31G
# DNA 1: CAATCTGAATTCCGGTCTCCC
# DNA 2: TGGTGGCTACGACGGGATT
# B23: CAAGAAA (DNA:RNA)
# RNA: B8 RNA with G25C, G26A, G29A, U30A, U31A
# DNA 1: CAATCTGAATTCCGGTCTCCC
# DNA 2: TGGTGGCTACGACGGGATT
# B24: GAAGGGC (DNA:RNA)
# RNA: B8 RNA with G26A, U30G, U31C
# DNA 1: CAATCTGAATTCCGGTCTCCC
# DNA 2: TGGTGGCTACGACGGGATT
# B25: AAGAGAA (DNA:RNA)
# RNA: B1 RNA with U25A, C28A, C29G, G30A, C31A
# DNA 1: CAATCTGAATTCCGGTCTCCC
# DNA 2: TGGTGGCTACGACGGGATT
# B26: AGUUGCU (DNA:RNA)
# RNA: B8 RNA with G25A, A27U, G28U, U30C
# DNA 1: CAATCTGAATTCCGGTCTCCC
# DNA 2: TGGTGGCTACGACGGGATT
# B27: CAGAGCC (DNA:RNA)
# RNA: B1 RNA with U25C, C28A, C29G, G30C
# DNA 1: CAATCTGAATTCCGGTCTCCC
# DNA 2: TGGTGGCTACGACGGGATT
# B28: AGCUCGG (DNA:RNA)
# RNA: B1 RNA with U25A, A26G, G27C, C28U, C31G
# DNA 1: CAATCTGAATTCCGGTCTCCC
# DNA 2: TGGTGGCTACGACGGGATT
# B29: UCCAGCA (DNA:RNA)
# RNA: B8 RNA with G25U, G26C, A27C, G28A, U30C, U31A
# DNA 1: CAATCTGAATTCCGGTCTCCC
# DNA 2: TGGTGGCTACGACGGGATT
# B30: AUUAGGG (DNA:RNA)
# RNA: B8 RNA with G25A, G26U, A27U, G28A, U30G, U31G
# DNA 1: CAATCTGAATTCCGGTCTCCC
# DNA 2: TGGTGGCTACGACGGGATT
# B31: UUACUGU (DNA:RNA)
# RNA: B1 RNA with A26U, G27A, C29U, C31U
# DNA 1: CAATCTGAATTCCGGTCTCCC
# DNA 2: TGGTGGCTACGACGGGATT
# Biological target: T1, RBFOX1 RRM RbFoxmut (Fox-RRM*)
# Test: EMSA; HiTS-Eq, 1 nM pool, 10 min; buffer printed only for the single-RNA assays: 10 mM Tris pH 7.5, 150 mM NaCl, 3.4 mM EDTA, 0.001% NP-40, 30 C
# Details: tags: His6 N-terminal (pET28a); label: 5' 32P
# Method in brief: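 Relative association constants, normalised to the cognate motif, were derived by comparing read counts of each RNA species with those of the control reaction. The RNA sequenced was the free fraction, separated by 8% native PAGE after a 10 min equilibration in 50 µL of 1 nM 5′-radiolabelled RNA (7 randomized nucleotides) with increasing concentrations of purified wild-type or mutant RbFox RRM.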
row,Binder,binding signal
1,B1,0.09 KA relative to UGCAUGU
2,B2,0.0617 KA relative to UGCAUGU
3,B3,0.0555 KA relative to UGCAUGU
4,B4,0.0538 KA relative to UGCAUGU
5,B5,0.959 KA relative to UGCAUGU
6,B6,0.0947 KA relative to UGCAUGU
7,B7,0.176 KA relative to UGCAUGU
8,B8,0.092 KA relative to UGCAUGU
9,B9,0.0674 KA relative to UGCAUGU
10,B10,0.0788 KA relative to UGCAUGU
11,B11,0.0716 KA relative to UGCAUGU
12,B12,0.0968 KA relative to UGCAUGU
13,B13,0.083 KA relative to UGCAUGU
14,B14,0.175 KA relative to UGCAUGU
15,B15,0.0815 KA relative to UGCAUGU
16,B16,0.0493 KA relative to UGCAUGU

row,Binder,binding signal
1,B17,0.062 KA relative to UGCAUGU
2,B18,0.0636 KA relative to UGCAUGU
3,B19,0.0513 KA relative to UGCAUGU
4,B20,0.0819 KA relative to UGCAUGU
5,B21,0.0583 KA relative to UGCAUGU
6,B22,0.0726 KA relative to UGCAUGU
7,B23,0.0895 KA relative to UGCAUGU
8,B24,0.0449 KA relative to UGCAUGU
9,B25,0.115 KA relative to UGCAUGU
10,B26,0.0923 KA relative to UGCAUGU
11,B27,0.135 KA relative to UGCAUGU
12,B28,0.108 KA relative to UGCAUGU
13,B29,0.123 KA relative to UGCAUGU
14,B30,0.0841 KA relative to UGCAUGU
15,B31,0.113 KA relative to UGCAUGU
